Test results from the supplement of paper PMC12217912.
This is one part of the list. The full chains were built here from the parent and the listed change. Inactive controls read about 0.05.

B1: TEV protease; numbered along this chain (parent)
chain: MGESLFKGPRDYNPISSSICHLTNESDGHTTSLYGIGFGPFIITNKHLFRRNNGTLVVQSLHGVFKVKDTTTLQQHLVDGRDMIIIRMPKDFPPFPQKLKFREPQREERICLVTTNFQTKSMSSMVSDTSCTFPSGDGIFWKHWIQTKDGQCGSPLVSTRDGFIVGIHSASNFTNTNNYFTSVPKNFMELLTNQEAQQWVSGWRLNADSVLWGGHKVFMVKPEEPFQPVKEATQL

Variants of: B1
Assay: raw area under fraction-flipped curve 0-4 h after induction (AUC4h, not background-subtracted), DNA-recorder readout of cleavage of the substrate (dimensionless); higher = more cleavage of the substrate by the protease variant
Conditions: temperature: 34 °C; time window: 0-4 h after rhamnose induction
Procedure: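 In vivo DNA recorder in E. coli TOP10(DE3) ΔrhaA at 34 °C. Each TEVp single-site mutant (parent TEVp 0) is paired with a single-site variant of the 7-mer TEVs (canonical ENLYFQ|S). The substrate sits between flexible linkers in a Bxb1-sfGFP-TEVs-SsrA fusion, so cleavage stabilises Bxb1 and speeds flipping of a recombination array, read by NGS. The value is the raw area under the fraction-flipped curve over 0-4 h after rhamnose induction (AUC4h), with ≥20 reads per time point. It is not background-subtracted; inactive controls average about 0.047.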
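Further: Bxb1 expression induced with 0.2% (w/v) L-rhamnose at OD600 near 0.5, cultures sampled hourly, flipped fraction per protease–substrate barcode pair counted by paired-end Illumina sequencing.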

Variant	area with substrate ENAYFQS	area with substrate ENDYFQS	area with substrate ENEYFQS	area with substrate ENFYFQS	area with substrate ENGYFQS	area with substrate ENHYFQS	area with substrate ENIYFQS	area with substrate ENMYFQS	area with substrate ENNYFQS	area with substrate ENQYFQS	area with substrate ENRYFQS	area with substrate ENSYFQS	area with substrate ENWYFQS	area with substrate ENCYFQS	area with substrate ENKYFQS	area with substrate ENPYFQS	area with substrate ENTYFQS	area with substrate ENVYFQS	area with substrate ENYYFQS
MGESLFKGPRDYNPISSSICHLTNESDGHTTSLYGIGFGPFIITNKHLFRRNNGTLVVQSLHGVFKVKDTTTLQQHLVDGRDMIIIRMPKDFPPFPQKLKFREPQREERICLVTTNFQTKSMSSMVSDTSCTFPSGDGIFWKHWIQTKDGQCGSPLVSTRDGFIVGIHFASNFTNTNNYFTSVPKNFMELLTNQEAQQWVSGWRLNADSVLWGGHKVFMVKPEEPFQPVKEATQL [S169F]	0.0571	0.0473	0.0549	0.0457	0.0874	0.0621	0.051	0.057	0.0488	0.0677	0.0554	0.0599	0.0485	–	–	–	–	–	–
MGESLFKGPRDYNPISSSICHLTNESDGHTTSLYGIGFGPFIITNKHLFRRNNGTLVVQSLHGVFKVKDTTTLQQHLVDGRDMIIIRMPKDFPPFPQKLKFREPQREERICLVTTNFQTKSMSSMVSDTSCTFPSGDGIFWKHWIQTKDGQCGSPLVSTRDGFIVGIHTASNFTNTNNYFTSVPKNFMELLTNQEAQQWVSGWRLNADSVLWGGHKVFMVKPEEPFQPVKEATQL [S169T]	0.0732	0.0714	0.0614	0.05	0.0618	0.0474	0.134	0.0655	0.0658	0.0592	0.0593	0.0924	0.0415	0.0674	0.0709	0.0625	0.0608	0.0861	0.0832
MGESLFKGPRDYNPISSSICHLTNESDGHTTSLYGIGFGPFIITNKHLFRRNNGTLVVQSLHGVFKVKDTTTLQQHLVDGRDMIIIRMPKDFPPFPQKLKFREPQREERICLVTTNFQTKSMSSMVSDTSCTFPSGDGIFWKHWIQTKDGQCGSPLVSTRDGFIVGIHSAENFTNTNNYFTSVPKNFMELLTNQEAQQWVSGWRLNADSVLWGGHKVFMVKPEEPFQPVKEATQL [S171E]	0.0634	0.0584	0.0705	0.0511	–	0.0477	–	–	–	0.0555	0.0748	0.0731	–	0.0547	–	0.0555	0.0789	0.0471	–
MGESLFKGPRDYNPISSSICHLTNESDGHTTSLYGIGFGPFIITNKHLFRRNNGTLVVQSLHGVFKVKDTTTLQQHLVDGRDMIIIRMPKDFPPFPQKLKFREPQREERICLVTTNFQTKSMSSMVSDTSCTFPSGDGIFWKHWIQTKDGQCGSPLVSTRDGFIVGIHSASNATNTNNYFTSVPKNFMELLTNQEAQQWVSGWRLNADSVLWGGHKVFMVKPEEPFQPVKEATQL [F173A]	0.0683	0.0581	0.0617	0.0572	0.0346	0.0682	0.0957	–	0.0649	0.0741	0.0694	0.0636	–	0.0117	0.0747	0.0637	0.0566	–	0.0611
MGESLFKGPRDYNPISSSICHLTNESDGHTTSLYGIGFGPFIITNKHLFRRNNGTLVVQSLHGVFKVKDTTTLQQHLVDGRDMIIIRMPKDFPPFPQKLKFREPQREERICLVTTNFQTKSMSSMVSDTSCTFPSGDGIFWKHWIQTKDGQCGSPLVSTRDGFIVGIHSASNDTNTNNYFTSVPKNFMELLTNQEAQQWVSGWRLNADSVLWGGHKVFMVKPEEPFQPVKEATQL [F173D]	0.0593	0.0638	0.0651	0.0562	0.0622	0.0599	–	0.095	0.0169	0.0606	0.0522	0.0646	0.05	0.0587	0.0577	–	0.0569	0.0622	0.0769
MGESLFKGPRDYNPISSSICHLTNESDGHTTSLYGIGFGPFIITNKHLFRRNNGTLVVQSLHGVFKVKDTTTLQQHLVDGRDMIIIRMPKDFPPFPQKLKFREPQREERICLVTTNFQTKSMSSMVSDTSCTFPSGDGIFWKHWIQTKDGQCGSPLVSTRDGFIVGIHSASNFTCTNNYFTSVPKNFMELLTNQEAQQWVSGWRLNADSVLWGGHKVFMVKPEEPFQPVKEATQL [N175C]	0.0915	0.0594	0.0523	–	–	0.0653	0.0846	0.0514	0.069	0.0551	–	0.0593	0.0533	–	0.0556	–	0.0466	0.0558	0.0511
MGESLFKGPRDYNPISSSICHLTNESDGHTTSLYGIGFGPFIITNKHLFRRNNGTLVVQSLHGVFKVKDTTTLQQHLVDGRDMIIIRMPKDFPPFPQKLKFREPQREERICLVTTNFQTKSMSSMVSDTSCTFPSGDGIFWKHWIQTKDGQCGSPLVSTRDGFIVGIHSASNFTFTNNYFTSVPKNFMELLTNQEAQQWVSGWRLNADSVLWGGHKVFMVKPEEPFQPVKEATQL [N175F]	0.046	0.0654	–	–	0.073	0.0605	0.128	–	0.0673	0.0826	0.0589	0.0594	–	0.0603	0.0504	–	–	0.0952	–
MGESLFKGPRDYNPISSSICHLTNESDGHTTSLYGIGFGPFIITNKHLFRRNNGTLVVQSLHGVFKVKDTTTLQQHLVDGRDMIIIRMPKDFPPFPQKLKFREPQREERICLVTTNFQTKSMSSMVSDTSCTFPSGDGIFWKHWIQTKDGQCGSPLVSTRDGFIVGIHSASNFTNYNNYFTSVPKNFMELLTNQEAQQWVSGWRLNADSVLWGGHKVFMVKPEEPFQPVKEATQL [T176Y]	0.0645	–	0.0572	0.0526	–	0.0871	–	0.0632	0.0622	0.0472	0.0513	0.128	–	–	0.0682	0.0704	–	–	–
MGESLFKGPRDYNPISSSICHLTNESDGHTTSLYGIGFGPFIITNKHLFRRNNGTLVVQSLHGVFKVKDTTTLQQHLVDGRDMIIIRMPKDFPPFPQKLKFREPQREERICLVTTNFQTKSMSSMVSDTSCTFPSGDGIFWKHWIQTKDGQCGSPLVSTRDGFIVGIHSASNFTNTANYFTSVPKNFMELLTNQEAQQWVSGWRLNADSVLWGGHKVFMVKPEEPFQPVKEATQL [N177A]	0.0702	–	0.0682	–	0.0244	0.0612	–	–	–	0.0734	0.0664	0.0854	0.065	0.0729	0.0712	0.0593	–	0.0456	0.0642
